Assay results taken from PubChem BioAssay AID1159554 (Broad Institute, 2015).
In all, about 94,000 compounds went through this assay and about 2,100 (2.2%) were called active. Inconclusive means that the source gave no clear call. Such entries were picked first, then a sample of the others. No stated cut-off is given here; in the data, active means activity change below about -80%; inconclusive means no clear call, values can overlap the other calls; inactive means above that.

Assay: P. falciparum Dd2 growth inhibitors, primary screen, SYBR Green fluorescence, single dose replicates (AID 1159554)
Conditions: 72 h, at 10 µM, stronger effect = lower value

SMILES	activity change
C[C@H]1CN([C@@H](C)CO)C(=O)c2ccccc2-c2ccccc2CO[C@H]1CN(C)Cc1ccc(C(F)(F)F)cc1	active: -92.1%
CNC(=O)C[C@@H]1CC[C@@H]2[C@H](COC[C@@H](O)CN2Cc2ccc(C(F)(F)F)cc2)O1	inactive: -6.58%
COc1ccc(NC(=O)Nc2ccc3c(c2)C(=O)N([C@H](C)CO)C[C@@H](C)[C@@H](CN(C)CC2CCCCC2)OCCCC[C@@H](C)O3)cc1	active: -81.3%
CC(C)CC#Cc1ccc2c(c1)O[C@@H](CN(C)C(=O)Cc1ccncc1)[C@@H](C)CN([C@@H](C)CO)S2(=O)=O	inconclusive: -80.3%
O=C(NCC[C@@H]1CC[C@@H](NS(=O)(=O)c2cccc(Cl)c2)[C@@H](CO)O1)c1cnccn1	inactive: 13.7%
C[C@@H]1CCCCO[C@H](CN(C)C(=O)Nc2ccccc2)[C@@H](C)CN([C@@H](C)CO)C(=O)c2cc(NS(=O)(=O)c3ccc(F)cc3)ccc2O1	inconclusive: -81.2%
C[C@H](CO)N1C[C@H](C)[C@@H](CN(C)C(=O)Nc2cccc3ccccc23)OCCCC[C@H](C)Oc2ccc(NC(=O)Cc3ccccc3)cc2C1=O	inconclusive: -80.2%
O=C(c1ccccn1)N1CC(=O)N2[C@H](CO)[C@@H](c3ccc(C#CCc4ccccc4)cc3)[C@@H]2C1	inconclusive: -83.2%
Cc1ccc(S(=O)(=O)N(C)C[C@H]2OCCCC[C@H](C)Oc3ccc(NC(=O)Nc4ccc(F)cc4)cc3C(=O)N([C@H](C)CO)C[C@H]2C)cc1	inconclusive: -80.2%
COc1ccc(S(=O)(=O)Nc2ccc3c(c2)C(=O)N([C@@H](C)CO)C[C@H](C)[C@@H](CN(C)C(=O)C2CCCCC2)OCCCC[C@@H](C)O3)cc1	active: -92.4%
Cc1noc(C)c1NC(=O)Nc1cccc2c1O[C@H](CN(C)S(=O)(=O)c1ccccc1)[C@@H](C)CN([C@@H](C)CO)C2=O	inactive: 16.3%
O=C(C[C@H]1C[C@@H]2c3cc(NS(=O)(=O)c4ccc(F)cc4)ccc3O[C@@H]2[C@@H](CO)O1)N1CCc2ccccc2C1	inconclusive: -81.1%
CC(C)CC#Cc1ccc([C@H]2[C@H](CO)N3CCCCN(S(=O)(=O)Cc4ccccc4)C[C@@H]23)cc1	inconclusive: -81.7%
CCCC#Cc1ccc([C@H]2[C@H](CO)N3CCCCN(CC4CCOCC4)C[C@@H]23)cc1	inconclusive: -80.2%
CN1C(=O)c2cc(NC(=O)c3cnccn3)ccc2OC[C@H]2O[C@@H](CC(=O)N[C@H]3CCN(Cc4ccccc4)C3)CC[C@H]21	inconclusive: -87%
C[C@H]1CCCCO[C@@H](CN(C)S(=O)(=O)c2ccc(F)cc2)[C@@H](C)CN([C@@H](C)CO)C(=O)c2cc(NC(=O)Nc3ccc(F)cc3)ccc2O1	inconclusive: -82%
Cc1ccc(S(=O)(=O)N[C@@H]2C=C[C@@H](CC(=O)O)O[C@@H]2CO)cc1	inactive: 14.1%
COc1ccccc1C#Cc1ccc2c(c1)O[C@@H](CN(C)Cc1ccncc1)[C@@H](C)CN([C@@H](C)CO)S2(=O)=O	inconclusive: -85%
CO[C@H]1CN(C)C(=O)c2cc(NC(=O)C3CC3)ccc2OC[C@@H](C)N(Cc2cc(F)ccc2F)C[C@H]1C	inconclusive: -81.6%
Cc1ccc(S(=O)(=O)N(C)C[C@@H]2Oc3ccc(NC(=O)Cc4cn(C)c5ccccc45)cc3CC(=O)N([C@H](C)CO)C[C@@H]2C)cc1	inconclusive: -80.7%
CC(C)NC(=O)Nc1ccc2c(c1)CC(=O)N([C@H](C)CO)C[C@H](C)[C@H](CN(C)C(=O)Nc1ccc(F)cc1)O2	inactive: 21.8%
COc1ccc(S(=O)(=O)N(C)C[C@@H]2OCCCC[C@@H](C)Oc3ccc(NC(=O)Nc4cccc5ccccc45)cc3C(=O)N([C@@H](C)CO)C[C@@H]2C)cc1	active: -83.4%
C[C@@H]1CN([C@H](C)CO)S(=O)(=O)c2ccc(C#Cc3ccccc3)cc2O[C@H]1CN(C)C(=O)Cc1ccccn1	inconclusive: -80.4%
Cc1cc(C(=O)Nc2cccc3c2O[C@@H](CN(C)Cc2ccc(C(=O)Nc4ccccc4N)cc2)[C@H](C)CN([C@@H](C)CO)C3=O)n(C)n1	active: -84.4%
CC(C)(C)[S@](=O)N1Cc2cc(C(=O)N[C@@H]3CCN(Cc4ccccc4)C3)nc(-c3cccc(-c4cccnc4)c3)c2[C@@H]1CCO	active: -87.8%
C[C@@H]1CCCCO[C@H](CN(C)Cc2ccc(Cl)c(Cl)c2)[C@H](C)CN([C@@H](C)CO)C(=O)c2cc(NC(=O)Nc3ccc(C(F)(F)F)cc3)ccc2O1	inconclusive: -82.9%
CN1c2ccc(C3=CCCCC3)cc2[C@H]2[C@H](CCN2C(=O)C2CC2)[C@@H]1CO	active: -88.5%
COc1ccc2c3c(n(C)c2c1)[C@H](CO)N(Cc1cccc(F)c1)CC31CN(C(=O)Cc2ccccc2)C1	inconclusive: -80.7%

SMILES	activity change
COc1ccc2c3c(n(C)c2c1)[C@H](CO)N(C(=O)CN(C)C)CC31CN(Cc2cccnc2)C1	inconclusive: -80.8%
COc1ccc2c3c([nH]c2c1)[C@H](CO)N(C(=O)Nc1cccc(F)c1)CC31CCN(S(=O)(=O)c2ccccc2)CC1	inconclusive: -82.9%
C[C@@H]1CN([C@@H](C)CO)C(=O)c2cccc(NC(=O)c3nc4ccccc4s3)c2O[C@H]1CN(C)Cc1ccc(C(F)(F)F)cc1	inconclusive: -81.5%
Cc1noc(C)c1S(=O)(=O)Nc1ccc2c(c1)C(=O)N([C@@H](C)CO)C[C@@H](C)[C@@H](CN(C)C(=O)Nc1cccc3ccccc13)OCCCC[C@@H](C)O2	inconclusive: -80%
C[C@H](CO)N1C[C@H](C)[C@@H](CN(C)C(=O)C2CCC2)Oc2cc(C#CC3CC3)ccc2S1(=O)=O	inactive: -34.8%
C[C@@H]1CN([C@H](C)CO)C(=O)c2cc(NC(=O)Nc3ccc4c(c3)OCO4)ccc2O[C@@H]1CN(C)C(=O)NC1CCCCC1	inactive: -10.7%
C[C@@H]1CN([C@@H](C)CO)C(=O)c2cccc(NS(=O)(=O)c3ccc(F)cc3)c2O[C@H]1CN(C)Cc1ccc(Oc2ccccc2)cc1	inconclusive: -82.3%
C[C@@H]1CCCCO[C@H](CN(C)Cc2ccc3c(c2)OCO3)[C@H](C)CN([C@H](C)CO)C(=O)c2cc(NC(=O)Nc3ccccc3)ccc2O1	inconclusive: -80.5%
CCCC#Cc1cnc2c(c1)C(=O)N([C@@H](C)CO)C[C@H](C)[C@H](CN(C)C(=O)Nc1cccc(F)c1)O2	active: -88.1%
C[C@@H]1CN([C@@H](C)CO)C(=O)c2cccc(NC(=O)c3cnccn3)c2O[C@@H]1CN(C)Cc1ccc(-c2ccccc2)cc1	active: -86.9%
C[C@H](CO)N1C[C@H](C)[C@H](CN(C)C(=O)Nc2cccc3ccccc23)Oc2ccc(NC(=O)Cc3cn(C)c4ccccc34)cc2CC1=O	active: -84.9%
COc1ccccc1-c1ccc2c(c1)[C@@H]1[C@@H](CCN1C(=O)C1CCCCC1)[C@@H](CO)N2	active: -85%
COc1ccc(CN(C)C[C@@H]2Oc3ccc(NC(=O)CCC(F)(F)F)cc3CC(=O)N([C@H](C)CO)C[C@@H]2C)cc1	inactive: 6.14%
COc1cccc(CN2[C@@H]3CNC[C@H]2[C@H]3c2ccc(-c3ccccc3OC)cc2)c1	inconclusive: -81.3%
C[C@H](CO)N1C[C@H](C)[C@@H](CN(C)CC2CC2)Oc2ccc(NC(=O)Nc3ccc(C(F)(F)F)cc3)cc2CC1=O	inconclusive: -80.2%
COc1ccc(NC(=O)N(C)C[C@H]2Oc3cc(-c4ccc(C)cc4)ccc3S(=O)(=O)N([C@@H](C)CO)C[C@@H]2C)cc1	inactive: -74.3%
C[C@H](CO)N1C[C@H](C)[C@H](CN(C)CC2CCCCC2)Oc2c(NS(=O)(=O)c3cccs3)cccc2C1=O	inactive: 4.53%
Cc1noc(C)c1S(=O)(=O)Nc1ccc2c(c1)CC(=O)N([C@H](C)CO)C[C@@H](C)[C@H](CN(C)Cc1ccc(Cl)c(Cl)c1)O2	inactive: -0.35%
CC(C)(C)[S@](=O)N1Cc2cc(C(=O)N[C@@H]3CCN(Cc4ccccc4)C3)nc(-c3cccc(-c4ccncc4)c3)c2[C@@H]1CCO	active: -81.2%
C[C@@H]1CN([C@@H](C)CO)S(=O)(=O)c2ccc(C#Cc3ccccc3)cc2O[C@H]1CN(C)S(=O)(=O)c1ccccc1F	inconclusive: -81.5%
C[C@H](CO)N1C[C@H](C)[C@H](CN(C)S(=O)(=O)c2cccs2)Oc2c(NC(=O)CCCCCC(=O)Nc3ccccc3N)cccc2C1=O	inconclusive: -81.6%
COc1ccc2c3c(n(C)c2c1)[C@H](CO)N(Cc1ccccc1Cl)CC31CCN(C(=O)CN(C)C)CC1	inconclusive: -80%
C[C@@H]1CN([C@@H](C)CO)C(=O)c2cc(NC(=O)Nc3ccc(F)cc3)ccc2O[C@@H](C)CCCCO[C@H]1CN(C)Cc1ccc(C(F)(F)F)cc1	inconclusive: -81.2%
C[C@H](CO)N1C[C@H](C)[C@H](CN(C)S(=O)(=O)c2ccc(Cl)cc2)OCc2ccccc2-c2ccccc2C1=O	active: -84.7%
COc1ccccc1S(=O)(=O)N(C)C[C@@H]1Oc2cc(/C=C/c3ccccc3)ccc2S(=O)(=O)N([C@H](C)CO)C[C@@H]1C	inconclusive: -80.3%
C[C@@H]1CCCCO[C@H](CN(C)S(=O)(=O)c2cccs2)[C@H](C)CN([C@H](C)CO)C(=O)c2cc(NC(=O)Cc3ccccc3)ccc2O1	inconclusive: -80.6%
COc1ccc2c3c(n(C)c2c1)[C@H](CO)N(C(=O)c1ccc(F)cc1)CC31CCN(C(=O)Nc2ccc(F)cc2)CC1	inconclusive: -80.3%
